The campaign covered roughly 310,000 compounds. About 2,200 (0.71%) showed an effect of 50% or more. Effects have a minus sign here. Some of the results follow.

In the assay the target is human ether-à-go-go-related gene (hERG) potassium channel (human, UniProt Q12809). As to the kind of experiment: primary screen, population patch clamp on CHO cells stably expressing hERG.
Sequence of human ether-à-go-go-related gene (hERG) potassium channel (Q12809 whole entry, looked up): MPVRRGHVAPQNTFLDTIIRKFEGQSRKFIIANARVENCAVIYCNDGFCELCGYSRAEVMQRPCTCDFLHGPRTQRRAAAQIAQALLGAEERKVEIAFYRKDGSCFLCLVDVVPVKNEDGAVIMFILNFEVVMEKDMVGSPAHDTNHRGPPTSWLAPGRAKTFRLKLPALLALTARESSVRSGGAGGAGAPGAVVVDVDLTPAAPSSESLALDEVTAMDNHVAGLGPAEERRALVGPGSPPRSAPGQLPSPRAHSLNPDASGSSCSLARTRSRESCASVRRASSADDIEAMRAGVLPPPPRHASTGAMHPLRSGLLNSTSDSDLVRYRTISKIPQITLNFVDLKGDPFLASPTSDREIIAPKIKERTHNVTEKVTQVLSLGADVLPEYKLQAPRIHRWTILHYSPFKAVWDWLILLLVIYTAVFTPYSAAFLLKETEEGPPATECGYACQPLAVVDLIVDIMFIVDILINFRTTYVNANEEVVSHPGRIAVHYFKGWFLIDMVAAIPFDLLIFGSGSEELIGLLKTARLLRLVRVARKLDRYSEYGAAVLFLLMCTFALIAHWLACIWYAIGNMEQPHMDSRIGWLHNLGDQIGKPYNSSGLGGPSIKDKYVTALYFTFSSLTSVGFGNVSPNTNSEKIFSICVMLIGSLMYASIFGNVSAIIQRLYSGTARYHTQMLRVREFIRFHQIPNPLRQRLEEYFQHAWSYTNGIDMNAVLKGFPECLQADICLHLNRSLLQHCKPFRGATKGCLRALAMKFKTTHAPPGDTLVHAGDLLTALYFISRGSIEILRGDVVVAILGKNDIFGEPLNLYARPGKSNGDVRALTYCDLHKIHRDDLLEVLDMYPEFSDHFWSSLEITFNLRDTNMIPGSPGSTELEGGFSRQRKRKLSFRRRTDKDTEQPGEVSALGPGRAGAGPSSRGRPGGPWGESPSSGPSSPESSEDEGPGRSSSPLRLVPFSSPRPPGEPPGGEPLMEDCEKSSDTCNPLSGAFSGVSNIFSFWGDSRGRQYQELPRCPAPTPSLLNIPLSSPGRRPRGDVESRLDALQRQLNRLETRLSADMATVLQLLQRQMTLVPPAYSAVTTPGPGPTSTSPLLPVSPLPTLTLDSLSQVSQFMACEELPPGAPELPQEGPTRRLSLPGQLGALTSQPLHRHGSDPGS
On to `CCCS(=O)(=O)N1CCC(C(=O)N2CCOCC2)CC1`, for which the “hERG current change (%, negative = inhibition) at 1uM” value was determined as 1.97%. For the molecule `COc1cc(/C=C/C(=O)N2CCN(c3ccccn3)CC2)cc(OC)c1OC`, the “hERG current change (%, negative = inhibition) at 1uM” value is on record as 10.2%. `Cc1ccc(-c2c(C#N)c(N)nc3c2CCCC3)s1`: the “hERG current change (%, negative = inhibition) at 1uM” value came out at 5.7%.

`CC(C)c1onc(C(=O)N2CCC(C(N)=O)CC2)c1[N+](=O)[O-]`: the “hERG current change (%, negative = inhibition) at 1uM” value is on record as 13%. As for `COc1cc(C#Cc2c(-c3cncn3C)n(C)c3ccc(-c4ccc5[nH]ccc5c4)cc23)cc(OC)c1`, the “hERG current change (%, negative = inhibition) at 1uM” value was 17.2%.

As for `Cc1cc(=O)[nH]c(SCC2(O)C3CC4CC(C3)CC2C4)n1` (stereo not shown), the “hERG current change (%, negative = inhibition) at 1uM” value is reported as 14.7%.

Regarding `CCOc1ccc(-n2c(=O)c3sccc3n(CC(=O)NCC3CCCO3)c2=O)cc1` (stereo not shown), the “hERG current change (%, negative = inhibition) at 1uM” value is recorded as 11.9%. To `CCOc1ccc(-c2cc(CCCC(=O)NCCc3ccccc3)no2)cc1` belongs 6.07%; to `NC(=O)[C@H]1CC2(CC(c3cccc(NC(=O)[C@H]4CCC(=O)N4)c3)=NO2)CN1C(=O)CC(c1ccccc1)c1ccccc1` (stereo partly shown), 5.55%. Turning to `CCCCn1c(N)c(N(CC(C)C)C(=O)c2cccc(S(=O)(=O)N3CCN(C)CC3)c2)c(=O)[nH]c1=O`, the “hERG current change (%, negative = inhibition) at 1uM” value was -7.64%.

As to `Cc1cnc(C(=O)Nc2nccs2)cn1`, the “hERG current change (%, negative = inhibition) at 1uM” value is given as -3.21%.

For `CC(C)CN(CC(C)C)S(=O)(=O)N1CCC(C(=O)NCCc2ccc(Cl)cc2)CC1`, the “hERG current change (%, negative = inhibition) at 1uM” value amounted to 13.3%. As for `CN1CCN(C(=S)NC(=O)/C=C/c2cccc3ccccc23)CC1`, the figure is 3.7%; as for `NC(=S)Nc1cccc(-c2n[nH]c(=S)o2)c1`, 15.2%; as for `O=C(CCNS(=O)(=O)c1ccc(Br)cc1)NCc1cccs1`, 6.54%.

Consider `Cc1ccc(C)c(N(CC(=O)N(C)C)S(C)(=O)=O)c1`, for which the “hERG current change (%, negative = inhibition) at 1uM” value is 12.6%.

On to `O=C(O)CC12CSc3[nH]c(=O)sc3C1c1ccccc1OC2=O` (stereo not shown), for which the “hERG current change (%, negative = inhibition) at 1uM” value stood at 17.6%. To `COc1cccc(NC(=O)c2ccccc2C(F)(F)F)c1` belongs -4.05%. With `COc1ccc(OCC(=O)N2CCN(CC3CC4C=CC3C4)CC2)cc1` (stereo not shown), the “hERG current change (%, negative = inhibition) at 1uM” value is on record as -16.5%.

In the case of `CN(C)Cc1c(O)ccc2[nH]cnc12.Cl`, the “hERG current change (%, negative = inhibition) at 1uM” value was -6.14%. To `CC(C)N1CCc2c(sc(NC(=O)CCS(=O)(=O)c3ccccc3)c2C(N)=O)C1.Cl` belongs -2.04%; to `Cn1c(CC(=O)NNC(=O)c2cccnc2)nc2ccccc21`, 6.53%; to `COc1ccc(-c2noc(CCCC(=O)NCCc3ccccc3)n2)cc1OC`, 15.2%. On to `COCC1CCN(C(=O)c2ccc3oc(CCCc4ccccc4)nc3c2)C1` (stereo not shown), for which the “hERG current change (%, negative = inhibition) at 1uM” value was -18.5%. To `CC1CCN(CC(O)COc2cccc(F)c2)CC1` (stereo not shown) belongs -0.91%; to `COc1ccc(Cl)cc1NC(=O)Nc1ccc(C(=O)N2CCOCC2)cc1`, 8.97%; to `COCCCN1C(=O)C(=O)/C(=C(/O)c2ccc(OCC(C)C)cc2)C1c1cccnc1` (stereo not shown), 6.94%.

Take `c1ccc(-c2cn3nc(-c4ccccc4)cnc3n2)cc1`: the “hERG current change (%, negative = inhibition) at 1uM” value is on record as 22.9%. As for `CCn1c(COc2cccc3ccccc23)nnc1SCC(=O)OC1CCCCC1`, the figure is 6.76%.

Turning to `COC(=O)c1ccc(C(=O)OC)c(NC(=S)N2CCN(c3ccccn3)CC2)c1`, the “hERG current change (%, negative = inhibition) at 1uM” value amounted to 4.91%. To `COc1ccc(C)cc1S(=O)(=O)NC1CC1` belongs 19%.

Regarding `O=C(NNC(=O)C1C2CCCCC21)c1coc(=O)c(Br)c1` (stereo not shown), the “hERG current change (%, negative = inhibition) at 1uM” value was found to be 10.5%. Regarding `CC(Oc1ccccc1)C(=O)Nc1c2c(nn1-c1ccccc1)CS(=O)(=O)C2` (stereo not shown), the “hERG current change (%, negative = inhibition) at 1uM” value was determined as 17.6%. To `O=C(Cc1cc(=O)oc2cc(O)ccc12)N[C@@H](Cc1c[nH]c2ccccc12)C(=O)O` belongs 13.2%; to `CNC(=O)COC(=O)c1cc(=O)[nH]c2ccccc12`, 9.71%; to `Cc1ccc(C(=O)O)cc1S(=O)(=O)N1CCSCC1`, 9.97%. For `CCC(CC)C(=O)NCc1cccnc1`, the “hERG current change (%, negative = inhibition) at 1uM” value came out at 13.4%. As for `Cc1ccc(N=CC=C2OC(C)(C)C(C)(C)O2)cc1`, the figure is 3.41%. To `CCn1c(SCC(N)=O)nc2c(c1=O)C1(CCCC1)Cc1ccccc1-2` belongs 6.12%; to `O=C(NCc1ccccc1)c1ccc(C2SCC(=O)N2Cc2ccccc2)cc1` (stereo not shown), 12.3%; to `Cc1occc1C(=O)NNC(=O)C1CC1`, 13.3%.

On to `CC(=O)Oc1cccc2c1C(=O)c1c(OC(C)=O)cc(C(=O)O)cc1C2=O`, for which the “hERG current change (%, negative = inhibition) at 1uM” value is reported as 10.5%. On to `CC1(NC(=O)C2CCN(C(=O)Nc3ccccc3)CC2)CCS(=O)(=O)C1` (stereo not shown), for which the “hERG current change (%, negative = inhibition) at 1uM” value was -6.43%.

In the case of `O=C(Nc1ccc(Cl)c(Cl)c1)Nc1nnc(CSc2ccccc2)s1`, the “hERG current change (%, negative = inhibition) at 1uM” value came to 9.56%.

As for `O=S(=O)(c1ccccc1)N(Cc1cccc(F)c1)c1ccccc1`, the “hERG current change (%, negative = inhibition) at 1uM” value came out at 19.4%. `O=P(O)(OCc1ccccc1)OCc1ccccc1`: the “hERG current change (%, negative = inhibition) at 1uM” value is 8.15%. Turning to `CCOC(=O)c1ccc(NC(=O)CN2CCc3ccccc3C2)cc1`, the “hERG current change (%, negative = inhibition) at 1uM” value is on record as -7.73%. As for `O=C(COC(=O)Cn1cnc2ccccc21)NCCCc1ccccc1`, the figure is 5.51%; as for `C=CCSc1nnc(NC(=O)CSc2nc(CCC)cc(=O)[nH]2)s1`, 1.07%; as for `COc1cccc(CN2CCC(Oc3ccc(C(=O)N4CCCCC4)cc3)CC2)c1O`, 9.08%.

Consider `C[C@@H](C(=O)OCC(=O)NCCc1ccc(S(N)(=O)=O)cc1)N1C(=O)C2CCCCC2C1=O` (stereo partly shown), for which the “hERG current change (%, negative = inhibition) at 1uM” value was determined as 12%. As for `S=C(Nc1ccccc1Oc1ccccc1)NC1CCCC1`, the figure is 5.54%; as for `Nc1nonc1C(=O)N/N=C/c1ccc(-c2ccc(Cl)c(C(=O)O)c2)o1`, 15.2%; as for `Cc1occc1C(=O)NCc1ccc2c(c1)OCO2`, 17.3%. As for `CSc1nc(-c2ccc(Cl)cc2)nn1S(=O)(=O)c1ccccc1`, the figure is 4.02%; as for `CCOC(=O)Nc1ccc(OC)c([N+](=O)[O-])c1`, 10.9%. As for `COc1cccc(NS(=O)(=O)c2cc3c4c(c2)CCC(=O)N4CCC3)c1`, the figure is 7.63%; as for `FC(F)c1nc2ccccc2[nH]1`, 13.5%.

Values taken from article PMC4336329 (PLoS ONE, 2015).
